The text below walks through data of PMC4336329 (PLoS ONE, 2015).

The campaign covered roughly 310,000 compounds. About 2,200 (0.71%) showed an effect of 50% or more. The effect is printed as a negative number. The list shows a part of the results.

human ether-à-go-go-related gene (hERG) potassium channel, sequence (Q12809 whole entry, looked up): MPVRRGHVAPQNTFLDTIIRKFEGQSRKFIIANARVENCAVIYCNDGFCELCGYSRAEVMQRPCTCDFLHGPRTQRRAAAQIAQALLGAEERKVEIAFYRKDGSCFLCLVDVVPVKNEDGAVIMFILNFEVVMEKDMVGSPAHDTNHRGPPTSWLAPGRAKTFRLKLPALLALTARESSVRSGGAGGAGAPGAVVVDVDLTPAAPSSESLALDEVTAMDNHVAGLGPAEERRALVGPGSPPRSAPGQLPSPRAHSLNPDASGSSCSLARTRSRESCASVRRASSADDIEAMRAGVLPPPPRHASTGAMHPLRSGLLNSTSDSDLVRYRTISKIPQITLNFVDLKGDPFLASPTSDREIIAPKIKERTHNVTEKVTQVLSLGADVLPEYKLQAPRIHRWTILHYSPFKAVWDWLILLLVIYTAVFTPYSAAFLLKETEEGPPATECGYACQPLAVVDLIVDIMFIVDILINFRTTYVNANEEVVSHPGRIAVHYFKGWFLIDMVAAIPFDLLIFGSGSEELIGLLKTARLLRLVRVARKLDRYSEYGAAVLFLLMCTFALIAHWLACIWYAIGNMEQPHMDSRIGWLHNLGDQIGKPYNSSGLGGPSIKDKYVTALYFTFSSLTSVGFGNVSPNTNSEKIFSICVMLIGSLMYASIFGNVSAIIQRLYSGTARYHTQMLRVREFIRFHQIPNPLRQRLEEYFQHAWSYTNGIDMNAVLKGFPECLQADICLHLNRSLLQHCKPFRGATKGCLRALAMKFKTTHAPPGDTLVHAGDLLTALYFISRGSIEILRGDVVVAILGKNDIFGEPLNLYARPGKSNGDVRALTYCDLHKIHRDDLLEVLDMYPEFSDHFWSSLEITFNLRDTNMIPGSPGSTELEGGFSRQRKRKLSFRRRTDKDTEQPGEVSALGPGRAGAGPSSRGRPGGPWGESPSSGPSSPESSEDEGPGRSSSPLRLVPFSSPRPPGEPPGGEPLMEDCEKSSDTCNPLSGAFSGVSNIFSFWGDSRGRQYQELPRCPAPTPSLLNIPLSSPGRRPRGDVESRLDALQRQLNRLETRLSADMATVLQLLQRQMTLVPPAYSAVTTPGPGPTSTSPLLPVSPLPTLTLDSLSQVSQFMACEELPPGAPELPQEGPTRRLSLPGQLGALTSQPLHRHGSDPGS

This assay concerns the target human ether-à-go-go-related gene (hERG) potassium channel (human, UniProt Q12809). As to the kind of experiment: primary screen, population patch clamp on CHO cells stably expressing hERG.
Consider `O=C(CCN1C(=O)/C(=C/c2ccc(F)cc2)SC1=S)NC1C=CS(=O)(=O)C1` (centres unmarked), for which the “hERG current change (%, negative = inhibition) at 1uM” value was 8.75%.
The same measure for `CCN(CC)S(=O)(=O)c1ccc2[nH]cc(C(=O)NCCc3ccc(OC)c(OC)c3)c(=O)c2c1`: 4.71%; for `CCOC(=O)CSc1[nH]c2cc(OC)ccc2c1[N+](=O)[O-]`: 4.58%; for `Cc1cc(C2=NNC(=NCCc3ccccc3)SC2)c(C)n1CC1CCCO1` (centres unmarked): 7.84%.
`CCCCn1nnc(NC(=O)Cc2ccc(Cl)cc2)n1`: the “hERG current change (%, negative = inhibition) at 1uM” value is -4.74%.
In the case of `CCCCOC(=S)NC(=O)c1sc2ccccc2c1Cl`, the “hERG current change (%, negative = inhibition) at 1uM” value was 0.594%.
The same measure for `COC(=O)N/N=C/c1cccc(OCCSc2ccc(Cl)cc2)c1`: 14.5%.
Take `CCN(CC(=O)NC1CCS(=O)(=O)C1)C(=O)C(c1ccccc1)c1ccccc1` (centres unmarked): the “hERG current change (%, negative = inhibition) at 1uM” value came to 8.7%.
The same measure for `O=C(Nc1ccc(OCC(=O)N2CCOCC2)cc1)c1ccccc1Cl`: 11.1%; for `O=C1NCN(c2ccccc2)C12CCNCC2`: 9.65%; for `CC(C)(C)c1cc(NCCCn2ccnc2)n2ncc(-c3ccccc3)c2n1`: 8.87%.
The value for `Cl.Oc1cccc(CN2CCCCC2)c1` was -0.769%; that for `CC(C)(C)c1ccc(-c2conc2N)cc1` was 10.4%.
`Cc1nn(Cc2ccccc2)c(Cl)c1C(=O)OCC#N`: the “hERG current change (%, negative = inhibition) at 1uM” value is reported as -0.208%.
As to `COc1cc(/C=N/NC(=O)CN2CC(c3ccccc3)CC2=O)ccc1OC(=O)N(C)C` (centres unmarked), the “hERG current change (%, negative = inhibition) at 1uM” value worked out at 8.89%.
As to `O=C(Cn1nc(-c2ccccc2)ccc1=O)NCCN1CCN(Cc2ccccc2)CC1`, the “hERG current change (%, negative = inhibition) at 1uM” value is listed as 4.05%.
The same measure for `CCOc1cc(C(=O)NC(C)Cc2cccs2)cc(OCC)c1OCC` (centres unmarked): 9.31%.
On to `CCOC(=O)c1c(NC(=O)CN2C(=O)NC3(CCC(CC)CC3)C2=O)sc(C)c1-c1ccc(C)cc1` (centres unmarked), for which the “hERG current change (%, negative = inhibition) at 1uM” value stood at 8.12%.
On to `CCc1ccc(NC(=O)c2cc(S(=O)(=O)N3CCCC3)c[nH]2)cc1`, for which the “hERG current change (%, negative = inhibition) at 1uM” value was 3.26%.
The value for `CCOCCCNC(=O)C1CCC(CNS(=O)(=O)c2ccc(Cl)cc2)CC1` (centres unmarked) was 1.19%.
As for `CCN(C(=O)CSc1nc2ccc([N+](=O)[O-])cc2s1)C1CCS(=O)(=O)C1` (centres unmarked), the “hERG current change (%, negative = inhibition) at 1uM” value is reported as -14.7%.
The value for `O=C(Oc1ccc(N2C(=O)C3C4CCC(C4)C3C2=O)cc1)c1ccco1` (centres unmarked) was 15.5%.
For the compound `COC(=O)C1=C(c2cccc(C#N)c2)C[C@@H]2CC[C@H]1N2C(=O)NCCNC(C)=O`, the “hERG current change (%, negative = inhibition) at 1uM” value is listed as 17.2%.
Regarding `CCCCNC(=O)CS(=O)Cc1nc(-c2cccc(C)c2)oc1C` (centres unmarked), the “hERG current change (%, negative = inhibition) at 1uM” value is given as -2.23%.
The value for `CC(C)CN(C(=O)COC(=O)CCC(=O)c1ccc(Cl)cc1)c1c(N)n(Cc2ccccc2)c(=O)[nH]c1=O` was 10.9%; that for `CCCCCCCN1CCC(=O)N(CCO)CC1` was -21.7%; that for `O=[N+]([O-])c1ccc(Cl)c(/C=N/N2CCN(c3ccccc3)CC2)c1` was 14.2%.
Take `O=C(c1cncc(Br)c1)N1CCN(c2ccc(N3CCOCC3)nn2)CC1`: the “hERG current change (%, negative = inhibition) at 1uM” value is 9.87%.
In the case of `CCOC(=O)N1CCN(C(=O)/C(=C\c2cccs2)NC(=O)c2cccs2)CC1`, the “hERG current change (%, negative = inhibition) at 1uM” value is reported as -8.11%.
As for `COc1cccc(NC(=O)[C@H](NC(=O)[C@@H]2Cc3ccccc3CN2)c2ccccc2)c1`, the “hERG current change (%, negative = inhibition) at 1uM” value was -18.9%.
The value for `C/C(=N\NC(=O)CN1CCN(Cc2ccccc2)CC1)c1cccs1` was -2.13%.
Turning to `Cc1nc(-c2ccccc2)cc(-c2ccccc2)n1`, the “hERG current change (%, negative = inhibition) at 1uM” value worked out at 7.66%.
The same measure for `c1ccc(SCc2nc3ccccc3s2)nc1`: 10%.
The value for `CC1OC23CCCCC2C(C#N)(C(=N)O3)C1(C#N)C#N` (centres unmarked) was 11.3%.
The value for `Cc1ccc(S(=O)(=O)N2CCN(C(=O)C3CC3C)CC2)c(C)c1` (centres unmarked) was -5.48%; that for `NNC(=O)C1CCCn2c1nc1sc3c(c1c2=O)CCCC3` (centres unmarked) was 7%.
Take `CCC(C)c1ccccc1OCCOCCN1CCCC1` (centres unmarked): the “hERG current change (%, negative = inhibition) at 1uM” value was -2.61%.
As to `O=C(CN1C(=O)/C(=C/c2ccccc2)SC1=S)NNC(=O)c1ccccc1O`, the “hERG current change (%, negative = inhibition) at 1uM” value came out at 13.4%.
Regarding `O=C(NCCC1=CCCCC1)C1CCCN(c2nc3ccccc3o2)C1` (centres unmarked), the “hERG current change (%, negative = inhibition) at 1uM” value is on record as 13.1%.
As to `Cn1c(=O)c2[nH]c(N3CCN(c4ccccc4)CC3)nc2n(C)c1=O`, the “hERG current change (%, negative = inhibition) at 1uM” value is 11.7%.
For `CC(=O)c1cccc(S(=O)(=O)N2CCN(c3nc4cc(C)cc(C)c4cc3C#N)CC2)c1`, the “hERG current change (%, negative = inhibition) at 1uM” value was 5.17%.
`CCNC(=O)C1CC(=O)N(c2ccc(OCC)cc2)C1` (centres unmarked): the “hERG current change (%, negative = inhibition) at 1uM” value amounted to 1.62%.
The same measure for `CCc1cccc(CC)c1NC(=O)COC(=O)/C(C#N)=C/c1ccc(OC)cc1`: 11.2%; for `COc1ccc(CCn2c(-c3ccco3)nc3nc4ccccc4nc32)cc1`: 3.09%.
